Data as given in the supplement of paper PMC4604168 (melanoma cell lines).
This is one part of the list. Single values are uncertain, as repeats are few or missing.

What was measured:
Assay in all cases: cell count relative to DMSO control; melanoma cells; higher = more viable cells
Conditions in all cases: library dose: standard library concentration; 72 h
[1] = test system: SkMel30
[2] = test system: SkMel5
[3] = test system: UACC257
[4] = test system: UACC62
[5] = test system: WM115
[6] = test system: WM1716
[7] = test system: WM1745
[8] = test system: WM3526
[9] = test system: WM3619
[10] = test system: WM451Lu
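Further: cells treated in 1,536-well plates, then fixed and DAPI-stained, with nuclei counted from automated high-throughput microscope images.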

Compound | cell count [1] [%] | cell count [2] [%] | cell count [3] [%] | cell count [4] [%] | cell count [5] [%] | cell count [6] [%] | cell count [7] [%] | cell count [8] [%] | cell count [9] [%] | cell count [10] [%]
O=C(O)C(=O)Nc1sc2c(c1C(=O)O)CCNC2 + COc1cc(N2CCC(N3CCN(C)CC3)CC2)ccc1Nc1ncc(Cl)c(Nc2ccccc2S(=O)(=O)C(C)C)n1 [NVP-TAE684] (first compound 8.33333 µM, partner dose 0.4 µM) | 120 | 71.9 | 86.8 | 83.3 | 90.9 | 83.1 | 43.1 | 95.5 | 85.3 | 93.4
O=C1NC(=O)/C(=C/c2ccc(-c3ccc(F)cc3O)o2)S1 + CCCCCCCCCCCC1=C(O)C(=O)C=C(O)C1=O [Embelin] (first compound 5 µM, partner dose 6 µM) | 95.3 | 81.6 | 105 | 125 | 97.7 | 94.8 | 66.4 | 94.3 | 89 | 121
O=C(O)C(=O)Nc1sc2c(c1C(=O)O)CCNC2 + Oc1nc(-c2ccc(C(F)(F)F)cc2)nc2c1CSCC2 [XAV939] (first compound 8.33333 µM, partner dose 10 µM) | 102 | 71.9 | 89.9 | 87.2 | 71.1 | 78.5 | 60.5 | 88.8 | 78 | 97.1
N#Cc1c(O)c2c(-c3ccc(-c4ccccc4O)cc3)csc2[nH]c1=O + Cc1cc([N+](=O)[O-])ccc1NS(=O)(=O)c1cc(Cl)ccc1Cl [FH535] (first compound 10 µM, partner dose 5 µM) | 82.2 | 79.3 | 78 | 103 | 80.5 | 90.4 | 78.3 | 63.7 | 77.5 | 86.4
Cc1cc([N+](=O)[O-])ccc1NS(=O)(=O)c1cc(Cl)ccc1Cl + CCCCCCCCCCCC1=C(O)C(=O)C=C(O)C1=O [Embelin] (first compound 5 µM, partner dose 6 µM) | 90.2 | 103 | 68.8 | 92.8 | 101 | 97.5 | 70.6 | 78.2 | 67 | 85.9
COc1ccc(-c2ccc3c(N4CCOCC4)nc(N4C[C@@H](C)O[C@@H](C)C4)nc3n2)cc1CO + O=C(O)C(=O)Nc1sc2c(c1C(=O)O)CCNC2 [TCS401] (first compound 0.1 µM, partner dose 8.33333 µM) | 68.4 | 61 | 80.5 | 80.6 | 85 | 82.1 | 71.3 | 77.4 | 67 | 70.6
O=C1NC(=O)/C(=C/c2ccc(-c3ccc(F)cc3O)o2)S1 + O=c1cc(-c2cccc3c2Sc2ccccc2S3)oc(N2CCOCC2)c1 [KU55933] (first compound 5 µM, partner dose 5 µM) | 97.5 | 95.5 | 105 | 91.3 | 114 | 94.9 | 104 | 68.2 | 101 | 96.6
O=C(O)C(=O)Nc1sc2c(c1C(=O)O)CCNC2 + CC(C)CCN1c2nc(Nc3cc(F)c(O)c(F)c3)ncc2N(C)C(=O)C1C [BID1870] (first compound 8.33333 µM, partner dose 1 µM) | 78.1 | 56.7 | 78 | 88.7 | 93.9 | 83.6 | 117 | 58.4 | 85.3 | 84.5
O=S(=O)(c1ccccc1)N(CC(F)(F)F)c1ccc(C(O)(C(F)(F)F)C(F)(F)F)cc1 + Cc1cc([N+](=O)[O-])ccc1NS(=O)(=O)c1cc(Cl)ccc1Cl [FH535] (first compound 7 µM, partner dose 5 µM) | 82.4 | 60.4 | 57.1 | 81.9 | 68.5 | 78.5 | 62.1 | 59.2 | 67 | 74.7
O=C1NC(=O)/C(=C/c2ccc(-c3ccc(F)cc3O)o2)S1 + c1cc(-c2cnn3cc(-c4ccc(OCCN5CCCCC5)cc4)cnc23)ccn1 [Dorsomorphin] (first compound 5 µM, partner dose 2 µM) | 83.5 | 65.9 | 96.8 | 119 | 76.1 | 99.6 | 61.2 | 78.4 | 94.3 | 73.8
CCN(CC)CCCCNc1ncc2cc(-c3cc(OC)cc(OC)c3)c(NC(=O)NC(C)(C)C)nc2n1 + O=C1NC(=O)/C(=C/c2ccc(-c3ccc(F)cc3O)o2)S1 [AS252424] (first compound 0.5 µM, partner dose 5 µM) | 90.2 | 90.8 | 99.2 | 111 | 85.8 | 126 | 80.5 | 80.5 | 90.5 | 62.4
COc1ccc(-c2ccc3c(N4CCOCC4)nc(N4C[C@@H](C)O[C@@H](C)C4)nc3n2)cc1CO + CCN(CC)CCCCNc1ncc2cc(-c3cc(OC)cc(OC)c3)c(NC(=O)NC(C)(C)C)nc2n1 [PD173074] (first compound 0.1 µM, partner dose 0.5 µM) | 84.6 | 66.4 | 99 | 98.5 | 81.6 | 98.4 | 82.5 | 84.6 | 59.2 | 75.7
N#Cc1c(O)c2c(-c3ccc(-c4ccccc4O)cc3)csc2[nH]c1=O + COC(=O)c1sccc1S(=O)(=O)Nc1ccc(Nc2ccccc2)cc1OC [GSK0660] (first compound 10 µM, partner dose 5 µM) | 87 | 99.8 | 104 | 93.4 | 111 | 107 | 93.7 | 77.4 | 103 | 100
CCN(CC)CCCCNc1ncc2cc(-c3cc(OC)cc(OC)c3)c(NC(=O)NC(C)(C)C)nc2n1 + O=S(=O)(c1ccccc1)N(CC(F)(F)F)c1ccc(C(O)(C(F)(F)F)C(F)(F)F)cc1 [T0901317] (first compound 0.5 µM, partner dose 7 µM) | 80.7 | 72.3 | 93.3 | 62.7 | 111 | 98 | 70.2 | 91.2 | 73.2 | 83.5
COC(=O)c1sccc1S(=O)(=O)Nc1ccc(Nc2ccccc2)cc1OC + COc1ccc2c(c1)CCC1C2CCC2(C)C(NCCCCCCN3C(=O)C=CC3=O)CCC12 [U73122] (first compound 5 µM, partner dose 2 µM) | 83.8 | 86.1 | 99.7 | 59.4 | 78.2 | 76.4 | 85.9 | 95.2 | 79.6 | 116
COc1ccc2c(c1)CCC1C2CCC2(C)C(NCCCCCCN3C(=O)C=CC3=O)CCC12 (stereo not given) + CCN(CC)CCCCNc1ncc2cc(-c3cc(OC)cc(OC)c3)c(NC(=O)NC(C)(C)C)nc2n1 [PD173074] (first compound 2 µM, partner dose 0.5 µM) | 85.7 | 75.1 | 79.7 | 53 | 77.7 | 71.6 | 97.1 | 78.4 | 61.7 | 69.8
COc1cc2ncnc(Nc3ccc(Oc4ccccc4)cc3)c2cc1OC + COc1cc(N2CCC(N3CCN(C)CC3)CC2)ccc1Nc1ncc(Cl)c(Nc2ccccc2S(=O)(=O)C(C)C)n1 [NVP-TAE684] (first compound 10 µM, partner dose 0.4 µM) | 99.4 | 45.6 | 74.8 | 58.3 | 73.3 | 61.9 | 32.8 | 42.7 | 60.6 | 59.7
COc1ccc2c(c1)CCC1C2CCC2(C)C(NCCCCCCN3C(=O)C=CC3=O)CCC12 (stereo not given) + COc1ccc(COc2ccc(Cc3cnc(N)nc3N)cc2OC)cc1 [GW2580] (first compound 2 µM, partner dose 5 µM) | 76.2 | 85.5 | 84.9 | 91.5 | 76.2 | 87.7 | 62.7 | 79.3 | 106 | 91.5
COc1ccc2c(c1)CCC1C2CCC2(C)C(NCCCCCCN3C(=O)C=CC3=O)CCC12 (stereo not given) + Cc1cc([N+](=O)[O-])ccc1NS(=O)(=O)c1cc(Cl)ccc1Cl [FH535] (first compound 2 µM, partner dose 5 µM) | 105 | 76.4 | 57.8 | 60.5 | 76.5 | 65.9 | 55.5 | 81.1 | 23.4 | 94.9
COc1ccc(-c2ccc3c(N4CCOCC4)nc(N4C[C@@H](C)O[C@@H](C)C4)nc3n2)cc1CO + Cc1cc([N+](=O)[O-])ccc1NS(=O)(=O)c1cc(Cl)ccc1Cl [FH535] (first compound 0.1 µM, partner dose 5 µM) | 78.7 | 61.6 | 62.7 | 56.1 | 83.4 | 77.9 | 61.7 | 60.4 | 102 | 78.6
Oc1cc(-c2nc(-c3ccccc3)[nH]c2-c2ccncc2)ccc1Cl + CCCCCCCCCCCC1=C(O)C(=O)C=C(O)C1=O [Embelin] (first compound 1 µM, partner dose 6 µM) | 80.7 | 88.1 | 79.5 | 55.7 | 59.2 | 79 | 65.4 | 55.1 | 70.1 | 61.9
O=C(O)C(=O)Nc1sc2c(c1C(=O)O)CCNC2 + CCCCCCCCCCCC1=C(O)C(=O)C=C(O)C1=O [Embelin] (first compound 8.33333 µM, partner dose 6 µM) | 102 | 84.3 | 78.2 | 120 | 80.8 | 88.5 | 71.2 | 88.9 | 83.6 | 89.6
N#Cc1c(O)c2c(-c3ccc(-c4ccccc4O)cc3)csc2[nH]c1=O + O=S(=O)(c1ccccc1)N(CC(F)(F)F)c1ccc(C(O)(C(F)(F)F)C(F)(F)F)cc1 [T0901317] (first compound 10 µM, partner dose 7 µM) | 93.1 | 76 | 92.6 | 95.2 | 101 | 95.8 | 74.8 | 72.2 | 93 | 91.9
COc1ccc(-c2ccc3c(N4CCOCC4)nc(N4C[C@@H](C)O[C@@H](C)C4)nc3n2)cc1CO + Cn1cc(/C=C2\C(=O)Nc3cccnc32)c2ccccc21 [GW441756] (first compound 0.1 µM, partner dose 2 µM) | 79.9 | 55.1 | 90.8 | 90.5 | 89 | 90.1 | 73.5 | 82.9 | 64.2 | 84.5
COc1cc2ncnc(Nc3ccc(Oc4ccccc4)cc3)c2cc1OC + Cn1cc(/C=C2\C(=O)Nc3cccnc32)c2ccccc21 [GW441756] (first compound 10 µM, partner dose 2 µM) | 79 | 54.1 | 65.2 | 64.1 | 55.2 | 77.5 | 40.5 | 57.4 | 38.4 | 73.5
